From PubChem BioAssay AID1468 (National Center for Advancing Translational Sciences (NCATS), 2008)
About 1,100 (0.39%) of roughly 280,000 compounds were called active. Inconclusive results, whose numbers are uncertain, are shown with a selection of clear calls. The call rests on the fitted dose curve; in most records, active means well fitted inhibition curve with a large enough effect; inconclusive means small, poorly fitted or top-dose-only effect, or effect the other way; inactive means flat fitted curve, though single readings scatter. Potencies of inconclusive entries are left out as doubtful fits.

target: Microtubule-associated protein tau (Homo sapiens) (UniProt P10636); test: qHTS for Inhibitors of Tau Fibril Formation, Fluorescence Polarization; details: K18 P301L tau heparin fibrillization, Alexa594 FP, 6 h; series mostly up to 57.7 µM; activity, negative = inhibition: at the top concentration; further: nearly all actives have a fitted effect of over 55% in size
Procedure, shortened: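 Recombinant K18 P301L […], labeled with Alexa 594 at 0.24 uM over 15 uM unlabeled; heparin inducer 20 uM final; 37 C, 6 hr; FP endpoint.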
On the % scale 0 is the no-effect control and ±100 the full control effect; potency means the concentration at half of the fitted maximal effect; tags describe the fitted curve by direction and shape.

Chain of UniProt P10636 (P10636 whole entry, looked up): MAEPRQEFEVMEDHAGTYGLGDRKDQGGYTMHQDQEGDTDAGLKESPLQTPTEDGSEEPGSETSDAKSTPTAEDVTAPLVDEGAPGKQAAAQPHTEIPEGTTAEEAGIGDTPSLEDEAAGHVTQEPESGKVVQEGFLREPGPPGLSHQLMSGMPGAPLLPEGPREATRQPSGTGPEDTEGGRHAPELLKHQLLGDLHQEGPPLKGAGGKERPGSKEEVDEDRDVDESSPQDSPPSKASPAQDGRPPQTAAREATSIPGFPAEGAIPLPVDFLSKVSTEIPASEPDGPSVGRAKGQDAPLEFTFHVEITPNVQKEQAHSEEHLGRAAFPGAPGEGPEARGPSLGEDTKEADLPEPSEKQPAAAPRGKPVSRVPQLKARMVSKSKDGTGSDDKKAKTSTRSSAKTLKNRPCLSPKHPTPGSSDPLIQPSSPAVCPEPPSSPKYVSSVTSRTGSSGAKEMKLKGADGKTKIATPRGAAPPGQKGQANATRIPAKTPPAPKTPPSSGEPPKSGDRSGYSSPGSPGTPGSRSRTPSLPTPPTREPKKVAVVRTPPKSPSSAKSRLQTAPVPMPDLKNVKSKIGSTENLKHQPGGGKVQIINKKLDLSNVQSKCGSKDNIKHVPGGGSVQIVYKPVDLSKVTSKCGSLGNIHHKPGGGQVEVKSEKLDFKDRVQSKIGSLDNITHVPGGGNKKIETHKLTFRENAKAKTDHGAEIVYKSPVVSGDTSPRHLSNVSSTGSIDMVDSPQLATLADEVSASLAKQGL

Row | SMILES | activity, negative = inhibition | Potency
1 | CCCCOc1cccc(C(=O)N(Cc2ccc(N(C)C)cc2)C2CCS(=O)(=O)C2)c1 (stereo unspecified) | inactive: 9.89% | 
2 | CCc1ccc2[nH]c(=O)c(C(c3nnnn3CCOC)N3CCN(c4ccccc4F)CC3)cc2c1 (stereo unspecified) |  | inconclusive [inhibitor, partial curve]
3 | COc1ccc(Cn2c(C(=O)O)c(CNCc3ccco3)c3ccc(OC)cc32)cc1 | inactive: 9.3% | 
4 | c1ccc2c(CSc3ncnc4nc[nH]c34)cccc2c1 |  | inconclusive [inhibitor, partial curve, poor fit]
5 | CCOc1cc(Br)cc(C2NC(=O)c3c(sc4c3CCN(C)C4)N2)c1O (stereo unspecified) | inactive: -11.6% | 
6 | COc1ccc(CNC(=O)CSc2ncc3c(n2)-c2ccc(Cl)cc2N(Cc2ccc(F)cc2)S3(=O)=O)cc1OC | inactive: -17.2% | 
7 | CCOC(=O)/C(=N\Nc1ccc(Cl)cc1)c1csc(Nc2ccccc2)n1 |  | inconclusive [activator, full curve]
8 | Cc1nn(C)cc1/C=N\NC(=O)c1ccc2c(c1)c(C)c(C)n2Cc1ccccc1 | inactive: 2.41% | 
9 | CCc1ccc(-c2nn(-c3ccccc3)cc2C2SCC(=O)N2Cc2ccco2)cc1 (stereo unspecified) |  | inconclusive [inhibitor, partial curve]
10 | Oc1cccc(/C=N/Nc2cccc3cccnc23)c1 |  | inconclusive [activator, single point]
11 | CC(C)c1ccc(NS(=O)(=O)c2ccc3nc(-c4ccccc4)[nH]c3c2)cc1 |  | active: 10 µM
12 | COc1ccc(NCc2cc3cc4c(cc3n(CC(=O)Nc3cc(C)ccc3C)c2=O)OCCO4)cc1 |  | inconclusive [activator, partial curve, poor fit]
13 | CCOc1ccc(CN2CCc3nc(Nc4ccc5c(c4)OCCO5)ncc3C2)cc1 |  | inconclusive [activator, single point]
14 | O=S(=O)(c1ccccc1)N(CC(F)(F)F)c1ccc(C(O)(C(F)(F)F)C(F)(F)F)cc1 |  | inconclusive [inhibitor, single point]
15 | Cn1c(SCC(=O)c2ccccc2)nnc1-c1cccnc1 | inactive: -1.36% | 
16 | Cc1ccc(Sc2nc(-c3ccccc3)ccc2C#N)cc1 |  | inconclusive [inhibitor, partial curve]
17 | N#Cc1cccc(N=Cc2c(O)ccc3ccccc23)c1 | inactive: -17.9% | 
18 | COc1ccc(CCNC(=O)c2ccc(Cn3c(=O)c4ccccc4n(Cc4cccc(Cl)c4)c3=O)cc2)cc1OC | inactive: -13.3% | 
19 | Cc1ccc(NC(=O)Cn2c(=O)n(Cc3ccco3)c(=O)c3ccccc32)c(C)c1 |  | inconclusive [inhibitor, single point]
20 | Cc1ccc(-c2cn(-c3cccc(Cl)c3)c(S(=O)(=O)CC(=O)Nc3ccccc3F)n2)cc1 |  | inconclusive [inhibitor, full curve, poor fit]
21 | COc1ccc(-c2nc(=S)c3ccc4ccccc4c3[nH]2)cc1 | inactive: -8.4% | 
22 | Cc1ccc(NC(=O)c2oc3ccccc3c2NC(=O)c2ccc3c(c2)OCO3)cc1 |  | inconclusive [inhibitor, single point]

Row | SMILES | activity, negative = inhibition | Potency
23 | CS/C(=C\[N+](=O)[O-])Nc1ccccc1 |  | inconclusive [inhibitor, single point]
24 | COc1cc2[nH]c(Cl)c([N+](=O)[O-])c2cc1OC |  | inconclusive [inhibitor, partial curve]
25 | CC(=O)Nc1ccc(N(CC(O)Cn2c3ccccc3c3ccccc32)S(=O)(=O)c2ccc(C)cc2)cc1 (stereo unspecified) |  | inconclusive [inhibitor, partial curve]
26 | CCOC(=O)c1ccc(NC(=O)c2cc3sccc3n2Cc2ccc(Cl)cc2)cc1 |  | inconclusive [inhibitor, partial curve]
27 | Cc1cccc(N2CCN(S(=O)(=O)c3csc(C(N)=O)c3)CC2)c1C | inactive: -11.5% | 
28 | Cc1cccc(NC(=O)CSc2nc(-c3ccco3)cc(C(F)(F)F)n2)c1C |  | inconclusive [inhibitor, full curve, poor fit]
29 | O=C1CC(N(Cc2cccs2)C(=O)Nc2ccccc2)C(=O)N1c1ccc(Cl)cc1 (stereo unspecified) |  | inconclusive [inhibitor, partial curve]
30 | O=C(CSC1CC(=O)N(CC(c2ccccc2)c2ccccc2)C1=O)Nc1ccc(Cl)cc1 (stereo unspecified) |  | inconclusive [inhibitor, partial curve, poor fit]
31 | CCN1CCN(CCCNC(=O)c2ccc(/C=C3/Sc4ccccc4N(Cc4ccccc4F)C3=O)cc2)CC1 |  | inconclusive [inhibitor, partial curve, poor fit]
32 | Clc1cccc(N/N=C(\Cc2nc3ccccc3[nH]2)c2ccccc2)c1 |  | inconclusive [inhibitor, single point]
33 | CCOC(=O)c1ccccc1NC(=O)CSc1nnnn1C1CCCCC1 |  | inconclusive [inhibitor, partial curve, poor fit]
34 | CC1=C(C)CS(=O)N(S(=O)(=O)c2ccccc2)C1 (stereo unspecified) |  | inconclusive [inhibitor, single point]
35 | O=C(Nc1ccc(Cl)cn1)c1ccc(-c2cc(Cl)ccc2Cl)o1 |  | inconclusive [inhibitor, full curve, poor fit]
36 | COC(=O)c1ccc(SCC(=O)N2CCC(C)CC2)c([N+](=O)[O-])c1 |  | inconclusive [activator, single point]
37 | COc1ccc(C2=C(C)C(N3CCC(C(=O)Nc4ccc(F)cc4C)CC3)=NS2(=O)=O)cc1 | inactive: -16.2% | 
38 | O=C(Nc1ccc(Cl)c(C(F)(F)F)c1)C(Cc1ccccc1)NS(=O)(=O)c1ccc(Br)s1 (stereo unspecified) |  | inconclusive [inhibitor, full curve]
39 | Brc1cccc(-c2cnn3c(-c4ccccc4)cc(-c4ccccc4)nc23)c1 |  | inconclusive [inhibitor, partial curve]
40 | C(=N\Nc1nc2ccccc2[nH]1)/c1ccncc1 |  | inconclusive [activator, partial curve]
41 | Cc1cc(C)nc(-n2nc(C)cc2NC(=O)CNC2CCCCC2)n1 | inactive: -0.725% | 
42 | Cc1ccnc(NC(NC(=O)C(C)C)(C(F)(F)F)C(F)(F)F)c1 |  | inconclusive [inhibitor, partial curve]
43 | CN(C)c1ccc(C2C=C(c3ccc(Cl)cc3OC(F)F)Nc3ncnn32)cc1 (stereo unspecified) |  | inconclusive [activator, partial curve]
44 | O=C(Nc1cccc(C(F)(F)F)c1)c1cc(-c2ccc3c(c2)OCCO3)on1 |  | inconclusive [inhibitor, partial curve]

Row | SMILES | activity, negative = inhibition | Potency
45 | CCOC(=O)c1c(-c2ccc(OC)cc2)oc2ccc(OCc3ccc(Br)cc3)cc12 |  | inconclusive [inhibitor, single point]
46 | CCOc1ccc(CNS(=O)(=O)c2cc3c(cc2C)NC(=O)CO3)cc1 |  | inconclusive [inhibitor, single point]
47 | CN1CCN(C(=O)c2ccc3c(=O)n(Cc4ccc(Cl)cc4)c(=S)[nH]c3c2)CC1 | inactive: -2.54% | 
48 | O=C(N[C@@H](Cc1ccccc1)C(=O)OCc1ccccc1)c1nc[nH]c1C(=O)NCc1ccccc1 |  | inconclusive [inhibitor, partial curve]
49 | COc1ccc(NCc2cc3cc4c(cc3n(CC(=O)Nc3ccc(C)cc3C)c2=O)OCO4)cc1 |  | inconclusive [activator, partial curve, poor fit]
50 | CN(C)S(=O)(=O)c1ccc(Cl)c(NC(=O)CN2CCc3ccccc3C2)c1 | inactive: -2.71% | 
51 | CCOc1ccc(NC(=S)N2CCN(C/C=C/c3ccccc3)CC2)cc1 | inactive: -1.07% | 
52 | Cc1ccccc1Nc1nn2c(=O)c3ccc(C(=O)NCC(C)c4ccccc4)cc3nc2s1 (stereo unspecified) |  | inconclusive [inhibitor, single point]
53 | O=C(CSc1nc2ccccc2[nH]1)Nc1nc(-c2ccc(Br)cc2)cs1 |  | inconclusive [inhibitor, partial curve]
54 | CC1=C(c2ccc(C(C)C)cc2)S(=O)(=O)N=C1N1CCN(c2ccccc2F)CC1 |  | inconclusive [inhibitor, single point]
55 | CC(C)C[C@H](N)c1nnc(SCc2ccc(Cl)cc2Cl)o1 | inactive: 1.88% | 
56 | CCOc1ccc(CC(=O)Nc2c(C(N)=O)oc3ccc(Br)cc23)cc1OCC |  | inconclusive [inhibitor, partial curve]
57 | CC(C)(C)C(=O)[C@@H]1[C@@H]2C(=O)N(c3ccc4c(c3)OCCO4)C(=O)[C@@H]2C2c3ccccc3C=CN21 (stereo partly specified) |  | inconclusive [inhibitor, single point]
58 | COC(=O)c1cc(NC(=O)c2c(F)c(F)c(F)c(F)c2F)cc(C(=O)OC)c1 |  | inconclusive [inhibitor, full curve]
59 | NC(=NCCc1ccccc1)NS(=O)(=O)c1ccccc1 | inactive: 4.74% | 
60 | CNS(=O)(=O)c1ccc(NC(=O)C2c3ccccc3Oc3ccccc32)cc1 | inactive: -14.1% | 
61 | Cc1cccc(/N=C/c2c(O)ccc3oc4c(c23)CCCC4)n1 | inactive: -3.26% | 
62 | CC(=O)NC(=O)COC(=O)c1ccc2ncsc2c1 | inactive: -4.55% | 
63 | CC1CCc2onc(C(=O)Nc3ccc(Cl)cc3)c2C1 (stereo unspecified) |  | inconclusive [activator, single point]
64 | Cc1cc2c(cc1S(=O)(=O)N(CCN(C)C)Cc1ccccc1)OCC(=O)N2 | inactive: -2.47% | 
65 | COc1ccccc1C(c1c(O)cc(C)n(Cc2ccco2)c1=O)N1CCCCC1 (stereo unspecified) |  | inconclusive [inhibitor, single point]
66 | Cc1ccc(NC(=O)Cn2cc(S(=O)(=O)c3ccccc3)c(=O)c3cc(F)ccc32)cc1 |  | inconclusive [inhibitor, partial curve, poor fit]
